The text below walks through data of publication PMC12136788.

The list shows a part of the results.

The labels stand for the following.
B1: chr1:66462064:66462065:+_ENSMUSG00000015222_ENSMUST00000114013|mus_mus|FALSE|FALSE (ssRNA)
RNA: GGGAGUUCUACAGUCCGACGAUCGACCUCACCCUUCUCAUCCGUGGAUAAAUCAGCUUCGGAAACUGGAGGCGGGCAAGGGAUUUCUACAGACAGCUUGAGGGCAACUUCAUCUUGGAUCAGUGAUGUCUCUGGAGAUGUUUCCAACAGAGGAUUGAGCAUCA
B2: chr14:21838049:21838050:-_ENSG00000092201_ENST00000216297|hu_mus|FALSE|FALSE (ssRNA)
RNA: GGGAGUUCUACAGUCCGACGAUCGUUGAGCUCACCGUCCUCUUUCACAGCAAUGGUGUAUGCCACAACAGCGCUGAUGUCUACUUUGUCAAAGCCCUCCUUGUUGAGACAAUCACUCCAGCUCUUCAUGAACUCUCCAGGGAACAACAGAGGAUUGAGCAUCA
B3: chr14:76904430:76904431:+_ENSMUSG00000022010_ENSMUST00000022587|mus_mus|mus_mus_mus_hu_True|38_68 (ssRNA)
RNA: GGGAGUUCUACAGUCCGACGAUCUGCAGCCAAAAACACCCUCGUGGAAAAAAAGAGGGAACACCAGCAGCCUGGUUUAAGCUAGAUAAAAUCUUCUAGCUGUCUGCAGCCCAGGGAGAAACAGAAAACGGCAGCCCUAAUUUACAACAGAGGAUUGAGCAUCA
B4: chr18:32579733:32579734:+_ENSMUSG00000024381_ENSMUST00000025239|mus_mus|motif|central (ssRNA)
RNA: GGGAGUUCUACAGUCCGACGAUCUUUAUGGAAGUUUUCCUCCAGACCCGCGAUGCUCUGGAACGUGUUGACAUAGAAACCGGCACGGCUGUUCCACAGGGAUGGCAGCUCCUCCUGCAGAUCCACGUUCAUCUCCUCGAACACCAACAGAGGAUUGAGCAUCA
B5: chr7:140404665:140404666:+_ENSG00000090266_ENST00000247866|hu_hu|hu_hu_hu_mus_False|1_38 (ssRNA)
RNA: GGGAGUUCUACAGUCCGACGAUCUGCUCCUACUCGUCCAGAGAGUUUACAGUGUCAGUCCUCGUCAUCAGGAGGGAUUCCCAGUUCUUCAUCUGUCCACUGGGAAGGAUCUGGAUAUGAAAAGUGACCCAGCACAGCUUCUGACAACAGAGGAUUGAGCAUCA
B6: chr4:43015417:43015418:-_ENSMUSG00000028453_ENSMUST00000030165|mus_mus|motif|central (ssRNA)
RNA: GGGAGUUCUACAGUCCGACGAUCAAAGGGUAGGAAUGGGGAUUUUUAUGAGGAACUGCAGUUUAGUCCCCAGAAUCCAACCGGCCAAAAAGACAAUGGGAAGGAAGGGGGAGUUAGGGAGACAGGGAAGGCAGACAGAAGACGCAACAGAGGAUUGAGCAUCA
B7: 74397459_74397579_1786_3pUTR_ENSMUSG00000054814_ENSMUST00000068058|mouse|control|control (ssRNA)
RNA: GGGAGUUCUACAGUCCGACGAUCUACCAAUGACAGCCUUACCUCACCUUGCUCCAAUGUGGAGGAGGAUUUUGGCAUCUAGGCCACUCACUUUUAAACAUUUUCACUUGCACAAACUUAAAGCUAUGGUUGCAGCCCUAACAGCAACAGAGGAUUGAGCAUCA
B8: chr18:32917252:32917253:-_ENSG00000172466_ENST00000399061|hu_hu|motif|central (ssRNA)
RNA: GGGAGUUCUACAGUCCGACGAUCUUCUUAAACUUUCACAACAUUCAGAAGUUUUUCUGCAUUGUGUCUUCUCUGAUGUCGGAAAAGAUUUGAGCUUUGACUAUACGAUUUCCCACACUGAACGCAUUCAUAAGGUUUCUCCCCCAACAGAGGAUUGAGCAUCA
B9: chr12:16048344:16048345:+_ENSG00000023734_ENST00000419869|hu_hu|hu_hu_hu_mus_True|18_18 (ssRNA)
RNA: GGGAGUUCUACAGUCCGACGAUCAGAUCGUCCAUAAGUAAUAACCAAAAUCUCUCCUUCAGGAAUAUACUCCAUGCUGCUAACAGACAUAUUAAAAUUCAGAGAUUUCACUUCUGUCAUAGUAGCAUGAUCCCAGAGCCGAACCAACAGAGGAUUGAGCAUCA
B10: chr10:112343607:112343608:+_ENSG00000108055_ENST00000361804|hu_hu|FALSE|FALSE (ssRNA)
RNA: GGGAGUUCUACAGUCCGACGAUCUUCUAUUUUUUCAAGCAGCUUCUGCCUCUCUUUUAAUAAACGUUUCCUUUGUUCACUAUUGCCUGCUAGUUCAUCUUGUAAAUCCUUGGCUUUAAGCUCCAACUUAGUCCUCUGCUUAAUCAACAGAGGAUUGAGCAUCA
B11: chr4:115894766:115894767:+_ENSMUSG00000028698_ENSMUST00000030464|mus_hu|mus_mus_mus_hu_True|88_88 (ssRNA)
RNA: GGGAGUUCUACAGUCCGACGAUCUUCCACACGGAAAUGUACUUCGGGUUUCCAACGGGCCAGUACCAGUCCGGCCAAACUACCCGAACAGGGUCCUCCCCCUCUCUCCUACAGAACACAACAAAAUGCCCCCGAACUUUCAAGCAACAGAGGAUUGAGCAUCA
B12: chr17:29398750:29398751:-_ENSMUSG00000024007_ENSMUST00000024802|mus_mus|FALSE|FALSE (ssRNA)
RNA: GGGAGUUCUACAGUCCGACGAUCGUCGCCGCCUUGGAUCAUGAAGUCCUUGAUGAUCCUGUGGAACUUGGUGCCAUUGUAGUAGCCCCGCCGAGCCAGCUCCGCGAAGUUCUUGCAGGUCUUGGGCGCAUGCUUCCAGUAUAGCAACAGAGGAUUGAGCAUCA
B13: chr17:57756778:57756779:+_ENSG00000141367_ENST00000269122|hu_mus|FALSE|FALSE (ssRNA)
RNA: GGGAGUUCUACAGUCCGACGAUCACUACCCCACAAUUCUGGAUCCUUUCGACGGACUAAGUAGCGAGAAAGGCUUUUGAAGAGGGAAUUCUCAUUGCAAACAUUGAUGAGCUCCAGGUCACACUGGCCACGUUCAUAAGCAACCAACAGAGGAUUGAGCAUCA
B14: chr9:44212477:44212478:-_ENSMUSG00000032112_ENSMUST00000034623|perfect_dup|FALSE|FALSE (ssRNA)
RNA: GGGAGUUCUACAGUCCGACGAUCUGGAUUCUUGAGGGCAAAGUCUGAGUAAAUCUCAUAAAUCUUUCGGAGAAGAGAAUCUAUUCCAGCUUGCCUAGGAUCUGCUAGAACCACAAACUUGAUCCCUGUCAGUGUCUGGUAGCACAACAGAGGAUUGAGCAUCA

The assay concerns the target T1, UNK ZnF1-3 (human, UniProt Q9C0B0 31-174).
T1 sequence: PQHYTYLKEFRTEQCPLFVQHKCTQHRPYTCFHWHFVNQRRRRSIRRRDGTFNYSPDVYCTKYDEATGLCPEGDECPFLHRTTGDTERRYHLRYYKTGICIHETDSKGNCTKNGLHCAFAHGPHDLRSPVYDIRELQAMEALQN
Put plainly: nsRBNS (natural sequence RNA bind-n-seq); RBNS binding buffer (assumed for nsRBNS): 25 mM Tris pH 7.5, 150 mM KCl, 3 mM MgCl2, 0.01% Triton X-100, 500 ug/ml BSA, 20 U/ml SUPERase-In, 4 C; UNK is unkempt and MSI1 is Musashi-1; names of the RNAs are library labels; protein concentration not given here; high values mean tight binding.
In turn, B1 displayed a binding signal of 1.01 enrichment R.

B2 gave a binding signal of 1.33 enrichment R.

Turning to B3, the binding signal was 2.48 enrichment R.

In the case of B4, the binding signal is 0.625 enrichment R.

In turn, B5 registered a binding signal of 1.36 enrichment R.

The molecule B6 returned a binding signal of 1.67 enrichment R.

In the case of B7, the binding signal amounted to 0.546 enrichment R.

Regarding B8, the binding signal turned out to be 0.743 enrichment R.

B9 returned a binding signal of 0.977 enrichment R.

B10 came in with a binding signal of 0.394 enrichment R.

B11 yielded a binding signal of 0.994 enrichment R.

B12 displayed a binding signal of 0.593 enrichment R.

As to B13, the binding signal was 1.1 enrichment R.

B14 had a binding signal of 0.588 enrichment R.
